Source: PMC4336329 (PLoS ONE, 2015)
The whole screen tested about 310,000 compounds, of which about 2,200 (0.71%) showed an effect of 50% or more. Effects have a minus sign here. This is one part of the list.

These compounds were tested against human ether-à-go-go-related gene (hERG) potassium channel (human, UniProt Q12809) (assay: primary screen, population patch clamp on CHO cells stably expressing hERG).
Sequence of human ether-à-go-go-related gene (hERG) potassium channel (Q12809 whole entry, looked up): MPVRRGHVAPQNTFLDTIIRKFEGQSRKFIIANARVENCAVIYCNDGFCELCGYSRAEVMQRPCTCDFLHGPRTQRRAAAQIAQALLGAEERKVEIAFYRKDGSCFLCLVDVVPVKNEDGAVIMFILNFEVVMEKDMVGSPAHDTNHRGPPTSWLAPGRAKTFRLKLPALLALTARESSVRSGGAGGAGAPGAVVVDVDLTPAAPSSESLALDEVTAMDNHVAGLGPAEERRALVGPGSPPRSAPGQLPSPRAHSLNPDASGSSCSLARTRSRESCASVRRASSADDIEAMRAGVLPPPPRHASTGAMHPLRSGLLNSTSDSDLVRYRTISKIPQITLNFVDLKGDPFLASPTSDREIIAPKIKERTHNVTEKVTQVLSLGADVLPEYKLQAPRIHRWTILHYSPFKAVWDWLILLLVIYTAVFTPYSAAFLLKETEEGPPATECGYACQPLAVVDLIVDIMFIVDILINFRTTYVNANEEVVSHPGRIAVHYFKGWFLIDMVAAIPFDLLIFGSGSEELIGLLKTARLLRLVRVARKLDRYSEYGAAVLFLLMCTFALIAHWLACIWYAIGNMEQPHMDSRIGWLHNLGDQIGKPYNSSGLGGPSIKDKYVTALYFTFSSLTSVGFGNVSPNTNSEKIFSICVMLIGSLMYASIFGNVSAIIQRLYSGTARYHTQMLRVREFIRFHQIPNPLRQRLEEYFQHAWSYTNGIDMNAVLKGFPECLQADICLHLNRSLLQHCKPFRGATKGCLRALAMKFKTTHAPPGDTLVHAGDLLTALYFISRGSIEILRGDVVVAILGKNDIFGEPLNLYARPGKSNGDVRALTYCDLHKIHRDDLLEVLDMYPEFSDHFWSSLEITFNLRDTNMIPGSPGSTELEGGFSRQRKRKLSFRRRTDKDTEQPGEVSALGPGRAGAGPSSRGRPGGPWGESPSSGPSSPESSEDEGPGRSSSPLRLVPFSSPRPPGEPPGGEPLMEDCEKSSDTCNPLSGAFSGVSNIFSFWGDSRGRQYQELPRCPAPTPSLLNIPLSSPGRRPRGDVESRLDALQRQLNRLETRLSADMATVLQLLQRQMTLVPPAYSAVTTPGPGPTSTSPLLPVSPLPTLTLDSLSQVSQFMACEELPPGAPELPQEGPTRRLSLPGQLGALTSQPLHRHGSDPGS

Compound | hERG current change (%, negative = inhibition) at 1uM
c1ccc(C2Nc3ccccc3-c3nc4ccccc4n32)cc1 (stereo not drawn) | 8.81%
CCCCC1=CC2=C(c3ccco3)C(=O)C(C)(OC(=O)c3ccc(OC)cc3)C(=O)C2=CN1CCOC (stereo not drawn) | 6.22%
CCOc1cc(NC(=O)c2ccccn2)c(OCC)cc1NC(=O)c1ccc(C)cc1 | 3.06%
Cc1ccc(C(=O)NCCCNC(=O)COc2ccc(Cl)cc2)cn1 | 13.9%
Cc1ccc(N2CCN(S(=O)(=O)N3CCCCC3)CC2)cc1Cl | 5.52%
Cc1ccnc(SCCn2c(N3CC(C)CC(C)C3)nc3c2c(=O)n(C)c(=O)n3C)n1 (stereo not drawn) | 5.96%
O=C(NC1CCN(c2ncccn2)CC1)c1cccc(F)c1 | 18.9%
FC(F)(F)c1nnc2ccc(N3CCCCCC3)nn12 | -0.59%
Cc1cccc(Nc2nc3c(c(=O)n(C)c(=O)n3C)n2CC(O)CO)c1 (stereo not drawn) | 2.85%
COc1ccc2c(Cl)c(-c3nnco3)sc2c1 | 14.1%
Cc1ccccc1NC(=O)Cn1c(CCC(=O)O)ccc1-c1cccs1 | 10.6%
CCCN(CCC)C(=O)Cc1c(-c2ccc(Cl)cc2)nc2c(Cl)cc(Cl)cn12 | 10.6%
O=C(COC(=O)c1cccc(S(=O)(=O)N2CCCCCC2)c1)Nc1ccccc1C(F)(F)F | 16.2%
Cl.OCCN1CCN(CC#CCn2c3ccccc3c3ccccc32)CC1 | -9.67%
Cn1nnc2cc(C(=O)Nc3ccccc3)ccc21 | 9.83%
Cc1cccc(NC(=O)c2cc3c(s2)-c2c(C)cccc2OC3)n1 | 26.3%
COc1ccc(NC(=O)[C@@H]2CCCN2C(=O)c2cccs2)cc1S(=O)(=O)N1CCCCC1 | 5.21%
CCCCCCOC(=O)CCn1[nH]c(=O)c2ccccc2c1=O | 20%
COc1ccccc1C1CC(c2ccc(NS(C)(=O)=O)cc2)=NN1S(=O)(=O)c1ccccc1 (stereo not drawn) | -21.1%
Cc1ccc(C)c(N(CC(=O)N2CCc3ccccc3C2)S(C)(=O)=O)c1 | -10.5%
Cc1ccc(S(=O)(=O)Nc2cc(C(=O)NCCN3CCCC3)ccc2N2CCCCC2)cc1 | -8.57%
CCCc1ccc(S(=O)(=O)NCCc2ccncc2)cc1 | -3.65%
CCN(CCO)c1ccc(N=Cc2c(O)n(C)c(=S)[nH]c2=O)cc1 | 10.5%
COc1cccc(NC(=O)NCc2ccc(F)cc2)c1 | 3.63%
